# The shares of active, inactive and inconclusive entries below differ from those in the screen. Where a call stands in place of a potency, no number is given. For some assays here: A potency beside an inconclusive call is a rough fit, not a confirmed value. Calls of active or inactive are those of the source. Unless noted, calls follow the shape of the dose curve; as a rule, active = well fitted curve in the direction sought with a large enough effect in the repeat runs; inconclusive = weak or mixed curves; inactive = no such curve, though single readings can be large; an effect the other way counts as inactive or inconclusive.
# Key:
# [1] = qHTS assay to identify small molecule agonists of the peroxisome proliferator-activated receptor delta (PPARd) signaling pathway - cell viability counter screen (AID 743211); conditions: PPARd-bla HEK293H viability, CellTiter-Glo luminescence, 17 h; activity change, negative = cytotoxicity: at 62.6 µM (top of the series); also: nearly all actives have a fitted effect of over 55% in size
# Method in brief: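 PPARd-bla HEK293H cells (3000/well) were pre-incubated 5 h at 37 C, then exposed to compound for 17 h at 37 C. After 2 h with LiveBLAzer substrate, CellTiter-Glo was added to the same wells; luminescence read after 30 min at room temperature.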
# [2] = qHTS assay to identify small molecule agonists of the vitamin D receptor (VDR) signaling pathway - cell viability counter screen (AID 743224); conditions: VDR-bla HEK293T viability, CellTiter-Glo luminescence, 16 h; activity change, negative = cytotoxicity: at 62.6 µM (top of the series); also: potency is read from the fitted curve at half-maximal effect; nearly all actives have a fitted effect of over 50% in size
# Method in brief: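 In parallel with the bla FRET readout, cytotoxicity toward VDR-bla cells after 16 h compound exposure was assessed by CellTiter-Glo, with luminescence recorded after a 30 min room-temperature incubation.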
# [3] = target: Nuclear receptor ROR-gamma (Homo sapiens) (UniProt P51449); assay: qHTS assay to identify small molecule antagonists of the retinoid-related orphan receptor gamma (ROR-gamma) signaling pathway (AID 1159521; also: nearly all actives have a fitted effect of over 50% in size; also: potency is read from the fitted curve at half-maximal effect;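 as to activity change, negative = inhibition: CHO cells with doxycycline inducible ROR-gamma driving an RORE luciferase reporter; top concentration of the series differs between compounds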)
# Method in brief: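 Tet-on ROR-gamma CHO cells with ROR response element-luciferase reporter; compounds added 2 hr before 1 uM doxycycline induction, then 16 hr at 37 C. Antagonism scored as decreased ONE-Glo luminescence.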
# [4] = qHTS assay for small molecule activators of the heat shock response signaling pathway (AID 743210; active = well fitted activation curve with a large enough effect in the signal ratio in the repeat runs, with a control signal flat, not every such curve was filed as active; inconclusive = weak or mixed curves; the % refers to the signal ratio; also: potency is read from the fitted curve at half-maximal effect); conditions: HeLa HSE-bla reporter, beta-lactamase ratio, 5 h; activation: at 62.6 µM (top of the series) unless noted
# Method in brief: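 Heat shock element–beta-lactamase HeLa reporter cells; qHTS with compounds for 5 h at 37 C; detection by FRET substrate fluorescence after 2.5 h at RT.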
# [5] = target: Peroxisome proliferator-activated receptor delta (Homo sapiens) (UniProt Q03181); assay: qHTS assay to identify small molecule antagonists of the peroxisome proliferator-activated receptor delta (PPARd) signaling pathway (AID 743215; active = well fitted inhibition curve with a large enough effect in the signal ratio in the repeat runs, not every such curve was filed as active; inconclusive = weak or mixed curves, or effect the other way; inactive = no such curve, though single readings can be large or run the other way; the % refers to the signal ratio;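 also: cells stimulated with agonist L165041 at 300 nM final during compound exposure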); conditions: HEK293H PPARd-UAS-bla, beta-lactamase FRET ratio, antagonist, 17 h; ratio activity, negative = inhibition: at 62 µM (top of the series) unless noted
# UniProt Q03181, sequence (Q03181 whole entry, looked up): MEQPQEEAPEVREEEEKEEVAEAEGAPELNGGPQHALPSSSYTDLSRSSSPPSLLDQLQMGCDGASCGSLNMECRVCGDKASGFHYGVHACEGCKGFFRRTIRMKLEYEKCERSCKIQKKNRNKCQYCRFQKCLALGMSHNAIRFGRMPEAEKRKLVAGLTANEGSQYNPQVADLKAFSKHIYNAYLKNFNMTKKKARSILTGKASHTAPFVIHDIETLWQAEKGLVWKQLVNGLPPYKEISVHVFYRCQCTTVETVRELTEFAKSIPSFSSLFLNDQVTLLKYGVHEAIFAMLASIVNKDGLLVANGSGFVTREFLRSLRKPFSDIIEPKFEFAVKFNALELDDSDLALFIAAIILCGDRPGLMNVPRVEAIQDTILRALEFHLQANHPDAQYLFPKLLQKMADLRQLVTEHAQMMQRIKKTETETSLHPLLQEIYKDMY
# Method in brief: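 Fluorescence from cleaved LiveBLAzer B/G FRET substrate (2 h, room temperature) reports PPARd-driven beta-lactamase in HEK293H UAS-bla cells. Cells had been treated 17 h at 37 C with compound plus 300 nM final L165041.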
# [6] = qHTS assay to identify small molecule antagonists of the peroxisome proliferator-activated receptor delta (PPARd) signaling pathway - cell viability counter screen (AID 743213); conditions: PPARd-bla HEK293H viability, CellTiter-Glo luminescence, 17 h; viability change, negative = cytotoxic: at 62 µM (top of the series) unless noted; also: nearly all actives have a fitted effect of over 50% in size; also: potency is read from the fitted curve at half-maximal effect
# Method in brief: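 HEK293H cells with the PPARd UAS-bla reporter, co-treated 17 h at 37 C with compounds and L165041 (300 nM final), were lysed with CellTiter-Glo. Luminescence indicated viable cell content.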
# [7] = qHTS assay to identify small molecule antagonists of the vitamin D receptor (VDR) signaling pathway - cell viability counter screen (AID 743225); conditions: VDR-bla HEK293T viability, CellTiter-Glo luminescence, 16 h; viability change, negative = cytotoxic: at 61 µM (top of the series) unless noted; also: nearly all actives have a fitted effect of over 50% in size
# Method in brief: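 VDR-UAS-bla HEK 293T cells were plated and incubated 4 h at 37C, then dosed with compound plus 3 nM (final) 1-alpha,25-dihydroxyvitamin D3 for 16 h. After the 2 h beta-lactamase read, viability in the same wells was read as CellTiter-Glo luminescence after 30 min at room temperature.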
# [8] = qHTS assay for small molecule agonists of the antioxidant response element (ARE) signaling pathway - cell viability counter screen (AID 743203; calls by dose curve; also: nearly all actives have a fitted effect of over 55% in size; also: potency is read from the fitted curve at half-maximal effect); conditions: ARE-bla HepG2 viability, CellTiter-Glo luminescence, 16 h; viability change, negative = cytotoxic: at 73.3 µM (top of the series)
# Method in brief: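 Measured in the same wells as the beta-lactamase ARE reporter, this read-out is CellTiter-Glo luminescence from HepG2 ARE-bla cells given compounds for 16 hrs.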
# [9] = target: Vitamin D3 receptor (Homo sapiens) (UniProt P11473); assay: qHTS assay to identify small molecule antagonists of the vitamin D receptor (VDR) signaling pathway (AID 743223; active = well fitted inhibition curve with a large enough effect in the signal ratio in the repeat runs, not every such curve was filed as active; inconclusive = weak or mixed curves, or effect the other way; inactive = no such curve, though single readings can be large or run the other way; the % refers to the signal ratio; also: potency is read from the fitted curve at half-maximal effect); conditions: VDR-UAS-bla HEK293T, beta-lactamase FRET ratio, 16 h; activity change, negative = inhibition: at 61 µM (top of the series) unless noted
# UniProt P11473, sequence (P11473 whole entry, looked up): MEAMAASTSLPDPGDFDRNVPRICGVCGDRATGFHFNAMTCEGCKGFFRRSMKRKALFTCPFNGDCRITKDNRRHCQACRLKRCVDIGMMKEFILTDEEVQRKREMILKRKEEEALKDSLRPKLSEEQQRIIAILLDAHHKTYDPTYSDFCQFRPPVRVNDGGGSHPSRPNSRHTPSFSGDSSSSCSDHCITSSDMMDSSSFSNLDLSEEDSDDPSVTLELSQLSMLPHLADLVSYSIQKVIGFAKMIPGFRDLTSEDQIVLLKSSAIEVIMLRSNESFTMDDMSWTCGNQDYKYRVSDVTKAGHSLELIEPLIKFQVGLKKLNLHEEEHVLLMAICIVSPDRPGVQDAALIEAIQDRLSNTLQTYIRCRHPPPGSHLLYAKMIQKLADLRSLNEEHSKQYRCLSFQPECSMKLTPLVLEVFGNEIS
# Method in brief: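 VDR-bla cells were treated with compound plus 3 nM final 1alpha,25-dihydroxyvitamin D3 for 16 h at 37C. Beta-lactamase reporter read by B/G FRET substrate fluorescence after 2 h at room temperature. qHTS format.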
# [10] = target: Peroxisome proliferator-activated receptor delta (Homo sapiens) (UniProt Q03181); assay: qHTS assay to identify small molecule agonists of the peroxisome proliferator-activated receptor delta (PPARd) signaling pathway (AID 743212; calls by dose curve;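 also: HEK293H cells with PPARd UAS beta-lactamase reporter GeneBLAzer system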); conditions: HEK293H PPARd-UAS-bla, beta-lactamase FRET ratio, 17 h; activation: at 62.6 µM (top of the series) unless noted
# Method in brief: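 Beta-lactamase reporter read by fluorescence (LiveBLAzer B/G FRET, 2 h, room temperature). Test agents, in DMSO, incubated at 37 C with PPARd-bla HEK293H cells.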
# [11] = qHTS assay to identify small molecule agonists of the farnesoid-X-receptor (FXR) signaling pathway - cell viability counter screen (AID 743218); conditions: FXR-bla HEK293T viability, CellTiter-Glo luminescence, 16 h; viability change, negative = cytotoxic: at 62.6 µM (top of the series) unless noted; also: potency is read from the fitted curve at half-maximal effect; nearly all actives have a fitted effect of over 45% in size
# Method in brief: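 Readout: CellTiter-Glo luminescence, 30 min RT, multiplexed after the FXR-bla FRET reading. HEK 293T FXR-UAS-bla cells received compound 5 h post-plating and were incubated 16 h at 37 C.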
# [12] = target: Vitamin D3 receptor (Homo sapiens) (UniProt P11473); assay: qHTS assay to identify small molecule agonists of the vitamin D receptor (VDR) signaling pathway (AID 743222; calls by dose curve); conditions: HEK293T VDR-UAS-bla, beta-lactamase FRET ratio, 16 h; activation: at 63.5 µM (top of the series) unless noted
# Method in brief: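 Following 4 h attachment at 37C, VDR-bla cells (2,000 per well) received DMSO-dissolved compounds or controls. After 16 h incubation, LiveBLAzer B/G FRET substrate was added and fluorescence read 2 h later at room temperature.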
# [13] = qHTS assay for small molecule agonists of the antioxidant response element (ARE) signaling pathway (AID 743202; active = well fitted activation curve with a large enough effect in the signal ratio in the repeat runs, not every such curve was filed as active; inconclusive = weak or mixed curves, or effect the other way; inactive = no such curve, though single readings can be large or run the other way; the % refers to the signal ratio); conditions: HepG2 ARE-bla reporter, beta-lactamase FRET, 16 h; activation: at 73.3 µM (top of the series) unless noted
# Method in brief: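 Following a 16 h, 37 C exposure of reporter HepG2 cells (ARE-driven beta-lactamase, 2,000 cells/well) to compounds, FRET substrate was applied for 2 h at room temperature and fluorescence intensity recorded.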
# Tags tell the direction and shape of the fitted curve or compound fluorescence and quenching.
structure (smiles),measurement,setting,value
NC(N)=NC(=O)c1nc(Cl)c(N)nc1N,Potency,[1],inactive
same,Potency,[2],"inconclusive: 0.188 µM [rising, partial curve, poor fit]"
same,Potency,[3],"inconclusive: 6.35 µM [inhibitor, single point]"
CN(C)Cc1ccccc1,Potency,[4],inactive
same,Potency,[3],"inconclusive: 0.155 µM [inhibitor, single point]"
NC[C@H]1O[C@H](O[C@H]2[C@H](O)[C@@H](O[C@H]3O[C@H](CO)[C@@H](O)[C@H](N)[C@H]3O)[C@H](N)C[C@@H]2N)[C@H](N)[C@@H](O)[C@@H]1O,Potency,[4],"inconclusive: 16.4 µM [rising, partial curve, poor fit]"
same,"activity change, negative = inhibition",[3],inactive: -19.4% [at 19 µM]
O=C1CCCc2ccccc21,Potency,[1],inactive
same,Potency,[5],inactive
same,Potency,[3],"inconclusive: 2.76 µM [inhibitor, single point]"
C[C@H]1C[C@H]2[C@@H]3CCC4=CC(=O)C=C[C@]4(C)[C@@]3(Cl)[C@@H](O)C[C@]2(C)[C@@]1(O)C(=O)CO,Potency,[4],inactive
same,Potency,[1],inactive
same,Potency,[6],"inconclusive: 18.8 µM [cytotoxic, partial curve, poor fit]"
same,Potency,[7],inactive
same,Potency,[3],"inconclusive: 21.1 µM [inhibitor, single point]"
CC(C)=CC=O,Potency,[1],inactive
same,Potency,[6],inactive
same,Potency,[3],"inconclusive: 10.3 µM [inhibitor, single point]"
N#C/C(=C1\SCC(c2ccccc2Cl)S1)n1ccnc1 (stereo not drawn),Potency,[1],inactive
same,Potency,[3],inconclusive: 29.8 µM [inhibitor]
CC1=CCC(O)(C(C)C)CC1 (stereo not drawn),Potency,[8],"inconclusive: 27.3 µM [cytotoxic, partial curve, poor fit]"
same,Potency,[9],"inconclusive: 24.5 µM [activator, full curve, poor fit]"
same,Potency,[3],inactive
O=C(OCC1(COC(=O)c2cccnc2)CCCC(COC(=O)c2cccnc2)(COC(=O)c2cccnc2)C1O)c1cccnc1,Potency,[10],inactive
same,"activity change, negative = inhibition",[9],inconclusive: 15.6%
same,Potency,[3],inactive
CN(C)C(=O)CNC(=O)Cc1ccccc1,Potency,[8],inactive
same,Potency,[6],"inconclusive: 29.8 µM [cytotoxic, partial curve, poor fit]"
same,Potency,[11],"inconclusive: 0.0944 µM [rising, full curve, poor fit]"
same,"activity change, negative = inhibition",[9],inconclusive: -4.18%
same,Potency,[3],inactive
CC(=O)CCc1ccc(OC(C)=O)cc1,Potency,[8],"inconclusive: 17.2 µM [cytotoxic, partial curve, poor fit]"
same,Potency,[12],inactive
same,Potency,[9],inactive
same,Potency,[3],inactive
CC[C@H](C)C(=O)O[C@H]1C[C@H](O)C=C2C=C[C@H](C)[C@H](CC[C@@H](O)C[C@@H](O)CC(=O)O)[C@H]21,activation,[13],inconclusive: -7.43%
same,Potency,[9],"inconclusive: 1.55 µM [activator, full curve, poor fit]"
same,Potency,[3],inactive
